According to article PMC9911399, “Two distinct binding modes provide the RNA-binding protein RbFox with extraordinary sequence specificity”:
Substitutions are numbered along the chain they refer to; changes in the protein carry UniProt numbers. The list shows a part of the results.

T1: RBFOX1 RRM RbFoxmut (Fox-RRM*) (Homo sapiens, UniProt Q9NWB1 109-208, R118D;E147R;N151S;E152T)
T1 sequence: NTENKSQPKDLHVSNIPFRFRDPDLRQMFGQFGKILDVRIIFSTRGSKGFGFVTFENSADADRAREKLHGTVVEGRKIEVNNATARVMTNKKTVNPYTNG

B1: UCGAACA (DNA:RNA)
RNA: GGGAGACCGGAAUUCAGAUUGUCCUCGAACAUUAAAUCCCGUCGUAGCCACCA
DNA 1: CAATCTGAATTCCGGTCTCCC
DNA 2: TGGTGGCTACGACGGGATT
B2: GCAGACA (DNA:RNA)
RNA: B1 RNA with U25G, G27A, A28G
DNA 1: CAATCTGAATTCCGGTCTCCC
DNA 2: TGGTGGCTACGACGGGATT
B3: UGUUGCA (DNA:RNA)
RNA: B1 RNA with C26G, G27U, A28U, A29G
DNA 1: CAATCTGAATTCCGGTCTCCC
DNA 2: TGGTGGCTACGACGGGATT
B4: UAGGGGG (DNA:RNA)
RNA: B1 RNA with C26A, A28G, A29G, C30G, A31G
DNA 1: CAATCTGAATTCCGGTCTCCC
DNA 2: TGGTGGCTACGACGGGATT
B5: GUUUGGC (DNA:RNA)
RNA: GGGAGACCGGAAUUCAGAUUGUCCGUUUGGCUUAAAUCCCGUCGUAGCCACCA
DNA 1: CAATCTGAATTCCGGTCTCCC
DNA 2: TGGTGGCTACGACGGGATT
B6: CGUUCAU (DNA:RNA)
RNA: B5 RNA with G25C, U26G, G29C, G30A, C31U
DNA 1: CAATCTGAATTCCGGTCTCCC
DNA 2: TGGTGGCTACGACGGGATT
B7: GAAGCUG (DNA:RNA)
RNA: B5 RNA with U26A, U27A, U28G, G29C, G30U, C31G
DNA 1: CAATCTGAATTCCGGTCTCCC
DNA 2: TGGTGGCTACGACGGGATT
B8: UCGAUCG (DNA:RNA)
RNA: B1 RNA with A29U, A31G
DNA 1: CAATCTGAATTCCGGTCTCCC
DNA 2: TGGTGGCTACGACGGGATT
B9: AAGUAUG (DNA:RNA)
RNA: B1 RNA with U25A, C26A, A28U, C30U, A31G
DNA 1: CAATCTGAATTCCGGTCTCCC
DNA 2: TGGTGGCTACGACGGGATT
B10: GAUUGAG (DNA:RNA)
RNA: B5 RNA with U26A, G30A, C31G
DNA 1: CAATCTGAATTCCGGTCTCCC
DNA 2: TGGTGGCTACGACGGGATT
B11: UUCUCGU (DNA:RNA)
RNA: B5 RNA with G25U, U27C, G29C, C31U
DNA 1: CAATCTGAATTCCGGTCTCCC
DNA 2: TGGTGGCTACGACGGGATT
B12: CUAGGUU (DNA:RNA)
RNA: B5 RNA with G25C, U27A, U28G, G30U, C31U
DNA 1: CAATCTGAATTCCGGTCTCCC
DNA 2: TGGTGGCTACGACGGGATT
B13: GCUCACA (DNA:RNA)
RNA: B1 RNA with U25G, G27U, A28C
DNA 1: CAATCTGAATTCCGGTCTCCC
DNA 2: TGGTGGCTACGACGGGATT
B14: CUCAGGC (DNA:RNA)
RNA: B5 RNA with G25C, U27C, U28A
DNA 1: CAATCTGAATTCCGGTCTCCC
DNA 2: TGGTGGCTACGACGGGATT
B15: AGUCGGA (DNA:RNA)
RNA: B5 RNA with G25A, U26G, U28C, C31A
DNA 1: CAATCTGAATTCCGGTCTCCC
DNA 2: TGGTGGCTACGACGGGATT
B16: CUGGUAC (DNA:RNA)
RNA: B5 RNA with G25C, U27G, U28G, G29U, G30A
DNA 1: CAATCTGAATTCCGGTCTCCC
DNA 2: TGGTGGCTACGACGGGATT
B17: AAUUUCA (DNA:RNA)
RNA: B5 RNA with G25A, U26A, G29U, G30C, C31A
DNA 1: CAATCTGAATTCCGGTCTCCC
DNA 2: TGGTGGCTACGACGGGATT
B18: AGGGUCC (DNA:RNA)
RNA: B1 RNA with U25A, C26G, A28G, A29U, A31C
DNA 1: CAATCTGAATTCCGGTCTCCC
DNA 2: TGGTGGCTACGACGGGATT
B19: GGGGCAU (DNA:RNA)
RNA: B5 RNA with U26G, U27G, U28G, G29C, G30A, C31U
DNA 1: CAATCTGAATTCCGGTCTCCC
DNA 2: TGGTGGCTACGACGGGATT
B20: AUCACGG (DNA:RNA)
RNA: B5 RNA with G25A, U27C, U28A, G29C, C31G
DNA 1: CAATCTGAATTCCGGTCTCCC
DNA 2: TGGTGGCTACGACGGGATT

Target: T1, RBFOX1 RRM RbFoxmut (Fox-RRM*)
Assay: EMSA; HiTS-Eq, 1 nM pool, 10 min; buffer printed only for the single-RNA assays: 10 mM Tris pH 7.5, 150 mM NaCl, 3.4 mM EDTA, 0.001% NP-40, 30 C
Conditions: tags: His6 N-terminal (pET28a); label: 5' 32P
In short: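 A pool of RNA with 7 randomized nucleotides, 5′-radiolabelled and with DNA-annealed flanks, was equilibrated at 1 nM for 10 min in 50 µL with purified RbFox RRM, wild type or mutant, across increasing protein concentrations. Free RNA was separated by 8% native PAGE, excised, reverse-transcribed, barcoded by PCR and sequenced. Relative association constants were obtained from read-count changes of each RNA species versus the control reaction and normalised to the cognate motif.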

| Binder | binding signal |
| --- | --- |
| B1 | 0.0726 KA relative to UGCAUGU |
| B2 | 0.0764 KA relative to UGCAUGU |
| B3 | 0.265 KA relative to UGCAUGU |
| B4 | 0.0988 KA relative to UGCAUGU |
| B5 | 0.209 KA relative to UGCAUGU |
| B6 | 0.0748 KA relative to UGCAUGU |
| B7 | 0.09 KA relative to UGCAUGU |
| B8 | 0.125 KA relative to UGCAUGU |
| B9 | 0.498 KA relative to UGCAUGU |
| B10 | 0.183 KA relative to UGCAUGU |
| B11 | 0.0838 KA relative to UGCAUGU |
| B12 | 0.108 KA relative to UGCAUGU |
| B13 | 0.0849 KA relative to UGCAUGU |
| B14 | 0.0928 KA relative to UGCAUGU |
| B15 | 0.0675 KA relative to UGCAUGU |
| B16 | 0.102 KA relative to UGCAUGU |
| B17 | 0.0939 KA relative to UGCAUGU |
| B18 | 0.1 KA relative to UGCAUGU |
| B19 | 0.0983 KA relative to UGCAUGU |
| B20 | 0.11 KA relative to UGCAUGU |
